PMC7295996, “Structural basis for chemokine receptor CCR6 activation by the endogenous protein ligand CCL20” (Nature Communications, 2020)

Biological target: T1, human wild-type CCR6 (S2 to M374) with N-terminal FLAG-tagged BRIL fusion and C-terminal 10x His-tag (human, UniProt P51684 2-374)
T1 construct: C-C chemokine receptor 6 (CCR6), human, wild type, residues S2 to M374; BRIL is fused to the N terminus of the receptor; no density for BRIL or for S2 to Y26 in the map (model built from Y27 to C336); also called chemokine receptor CCR6; not shown: FLAG, N-terminal, kept; BRIL (thermostabilized apocytochrome b562), N-terminal, kept
T1 sequence (looked up): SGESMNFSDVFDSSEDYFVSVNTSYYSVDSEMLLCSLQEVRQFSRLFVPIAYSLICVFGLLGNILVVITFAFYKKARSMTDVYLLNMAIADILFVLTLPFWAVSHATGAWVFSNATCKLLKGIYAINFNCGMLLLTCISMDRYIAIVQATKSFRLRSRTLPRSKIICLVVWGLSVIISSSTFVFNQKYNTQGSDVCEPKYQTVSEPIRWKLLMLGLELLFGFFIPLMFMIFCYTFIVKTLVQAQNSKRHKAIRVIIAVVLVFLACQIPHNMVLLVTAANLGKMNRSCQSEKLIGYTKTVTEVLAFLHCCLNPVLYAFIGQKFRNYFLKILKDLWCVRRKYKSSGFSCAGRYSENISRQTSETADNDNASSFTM
Test: cryo-EM structure; CCR6, G protein heterotrimer and CCL20 mixed 1:1.2:10, 20 °C 2 h; apyrase; scFv16 added 1:1.2 CCR6:scFv16, on ice 1 h; complex purified on M2 anti-FLAG resin by the FLAG tag of CCR6; 20 mM HEPES pH 7.5, 100 mM NaCl, 0.001% LMNG/0.0002% CHS; map at 3.3 Å
Settings: both partners purified

binding result: binds
B1: wild-type CCL20 ([…]) with the native N-terminal alanine (ligand)
chain: not shown
notes: C-C motif chemokine 20 (CCL20), native processed form CCL20 ([…]) that begins with NH2-ASNFD; released by TEV cleavage at ENLYFQ/A. numbers count on: the mature protein; also called WT CCL20; full-length CCL20; source: E. coli Origami 2, as calmodulin fusion, purified (nickel-NTA, TEV digestion, HiTrap S); not shown: His10, N-terminal, cleaved; calmodulin, N-terminal, cleaved
